Values joined by “and” are separate entries in the source; they are usually repeats but may differ in a detail not shown here. Equal values may be shown once. Screen size: about 360,000 compounds; about 7,500 (2.1%) were called active. The inconclusive results got no clear call from the source; some entries with a clear call stand among them for comparison. The call rests on the fitted dose curve; in most records, active means well fitted cell-killing curve with a large enough effect; inconclusive means small, poorly fitted or top-dose-only effect, or effect the other way, or another doubt; inactive means no such curve, though single readings can be large or run the other way. Potencies of inconclusive entries are left out as doubtful fits.
Test: qHTS for induction of synthetic lethality in tumor cells producing 2HG: qHTS for the HT-1080-IDH1KD cell line;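 on activity, negative = toxicity: 0% = DMSO wells and -100% = cell-free medium wells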
Conditions: HT-1080 IDH1 knockdown viability, ATP luminescence, 48 h; activity, negative = toxicity: at 46.1 µM (top of the series) unless noted
How it was run: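 Using the IDH1-knockdown HT-1080 line run in the same batch and compound series as the NT line, viability after 48 h at 37 °C was determined by CellTiter-Glo luminescence and expressed as % activity.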
Potency means the concentration at half of the fitted maximal effect; tags describe the fitted curve by direction and shape.

Row | Compound | Potency | activity, negative = toxicity
1 | O=C1NC(=O)C(=Cc2cc(Cl)ccc2OCc2ccc(C(=O)O)cc2)C(=O)N1 | inconclusive [cytotoxic, single point] | –
2 | CC1OC(OC2C=C3CCC4C(CCC5(C)C(c6ccc(=O)oc6)CCC45O)C3(C)CC2)C(O)C(OC2OC(CO)C(O)C(O)C2O)C1O (stereo unspecified) | active: 0.184 µM | –
3 | O=C1NC(=O)N(CCC2=CCCCC2)C(=O)/C1=C/c1ccc(O)cc1 | – | inactive: 1.17%
4 | CC(C)n1c(O)c(C2c3cc(Cl)ccc3Oc3[nH]c(=O)n(C(C)C)c(=O)c32)c(=O)[nH]c1=O (stereo unspecified) | active: 2.31 µM | –
5 | COc1ccc(-n2cc(-c3ccccc3)c3c(N4CCN(CCO)CC4)ncnc32)cc1 | inconclusive [cytotoxic, single point] | –
6 | CCN(CC)P(=S)(c1c(C)nc2ccccn12)c1c(C)nc2ccccn12 | inconclusive [cytotoxic, partial curve, poor fit] | –
7 | O=[N+]([O-])c1ccc2nc(N3CCNCC3)ccc2c1 | inconclusive [cytotoxic, single point] | –
8 | COc1ccc(-n2nnnc2C(c2cccc3ccccc23)N2CCC(n3c(=O)[nH]c4ccccc43)CC2)cc1 (stereo unspecified) | inconclusive [cytotoxic, partial curve] | –
9 | Cc1cc(C)c(C)c(/C=C(/C#N)C(N)=S)c1C | inconclusive [cytotoxic, single point] | –
10 | O=C1NC(=O)N(c2ccccc2)C(=O)/C1=C\C=C\c1ccccc1 | active: 5.17 µM | –
11 | COc1ccc(N/N=C/c2c(O)n(-c3cccc(C)c3)c(=O)[nH]c2=O)cc1 | active: 11.6 µM | –
12 | CN(C)P(=O)(C(Cl)=C(N1CCCCC1)N1CCCCC1)N(C)C | active: 12.6 µM | –
13 | CCc1cccc(CC)c1NC(=S)N1CC2CC(C1)c1cccc(=O)n1C2 (stereo unspecified) | inconclusive [rising, partial curve] | –
14 | CC(=O)OC(C)(C)/C=C/C(=O)C(C)(O)C1C(O)CC2(C)C3CC=C4C(CC(O)C(=O)C4(C)C)C3(C)C(=O)CC12C (stereo unspecified) | active: 0.0461 µM | –
15 | CC(C)[C@H]1C(=O)O[C@H](C(C)C)C(=O)N(C)[C@@H](C(C)C)C(=O)O[C@H](C(C)C)C(=O)N(C)[C@@H](C(C)C)C(=O)O[C@H](C(C)C)C(=O)N1C | active: 3.26 µM | –
16 | CN(C)c1ccc(/C=C/c2cc[n+](C)c3ccccc23)cc1 | active: 5.8 µM and active: 7.31 µM | –
17 | C[C@@H]1O[C@@H](O[C@H]2C[C@@H](O)[C@]3(CO)[C@H]4[C@H](O)C[C@]5(C)[C@@H](C6COC(=O)C6)CC[C@]5(O)[C@@H]4CC[C@]3(O)C2)[C@H](O)[C@H](O)[C@H]1O (stereo partly specified) | active: 0.82 µM | –
18 | Cc1ccc2c(c1)C1CN(C)CCC1N2C(=O)CCCN1C(=O)c2cccc3cccc(c23)C1=O (stereo unspecified) | inconclusive [cytotoxic, single point] | –
19 | CN1C2CCC1/C(=C/c1ccccn1)C(=O)/C2=C\c1ccccn1 | active: 0.82 µM | –
20 | CCN(CC)c1ccc(/C=N/c2sc3c(c2C#N)C2CCN3CC2)c(O)c1 | inconclusive [cytotoxic, partial curve] | –
21 | Cc1cc(NC(=O)CCl)no1 | inconclusive [cytotoxic, single point] | –
22 | Nc1ccc(C2(c3ccc(N)cc3)c3ccccc3-c3ccccc32)cc1 | active: 16.4 µM | –

Row | Compound | Potency | activity, negative = toxicity
23 | Cc1ccc(NC(=O)c2snnc2C)cc1Cl | – | inactive: 6.61%
24 | CCOc1cc2c(cc1OCC)-n1cccc1C(c1ccc(OC(F)F)cc1)NC2 (stereo unspecified) | inconclusive [cytotoxic, single point] | –
25 | C=C1C(=O)O[C@@H]2C[C@@H](C)[C@@H]3C=CC(=O)[C@@]3(C)[C@@H](OC(C)=O)[C@H]12 | active: 4.61 µM | –
26 | CC1N(C)c2cc(NC(=O)c3ccco3)c(P(=O)(Nc3ccc([N+](=O)[O-])cc3)N3CCOCC3)cc2C1(C)C (stereo unspecified) | active: 10.3 µM | –
27 | Cc1cc(C)n(-c2ccc(NN=C(C#N)C#N)cc2)n1 | inconclusive [cytotoxic, single point] | –
28 | COC(=O)C(O)(c1ccc(NC(=S)NC(=O)c2ccc(Cl)cc2Cl)c(C)c1)C(F)(F)F (stereo unspecified) | inconclusive [cytotoxic, single point] | –
29 | Cc1cc(=O)oc2cc(OCC(=O)N3CCN(C(C)c4ccccc4)CC3)c(Cl)cc12 (stereo unspecified) | – | inactive: -11.6%
30 | c1cc2c(cc1CN1CCNCC1)OCO2 | – | inactive: 2.29%
31 | C=C1C(=O)O[C@@H]2C[C@@H](C)[C@@H]3C4OC4C(=O)[C@@]3(C)[C@@H](O)[C@H]12 (stereo partly specified) | active: 9.2 µM | –
32 | O=C1NC(=O)N(c2ccccc2)C(=O)/C1=C\c1ccccc1[N+](=O)[O-] | – | inactive: 5.03%
33 | COc1ccc(C(c2nnnn2-c2ccc3c(c2)OCCO3)N2CCC3(CC2)C(=O)NCN3c2ccccc2)cc1 (stereo unspecified) | inconclusive [cytotoxic, partial curve] | –
34 | CC(=O)OC(C)(C)/C=C/C(=O)[C@](C)(O)[C@H]1[C@H](O)C[C@@]2(C)[C@@H]3CC=C4[C@H](C[C@H](O)C(=O)C4(C)C)[C@]3(C)C(=O)C[C@]12C | active: 0.0326 µM | –
35 | c1ccc2sc(N3CCNCC3)nc2c1 | inconclusive [cytotoxic, partial curve, poor fit] | –
36 | NC(Cc1ccc(Cl)cc1)c1csc(Nc2ncccn2)n1 (stereo unspecified) | active: 5.8 µM | –
37 | COc1ccc(C(=O)C2CCCN(Cc3ccc(C)s3)C2)c(OC)c1 (stereo unspecified) | – | inactive: -16.6%
38 | CCCCCN1C(=O)c2ccccc2[C@@]2(C(=O)OCC)Cc3cc(Cl)ccc3[C@@H]12 | inconclusive [cytotoxic, single point] | –
39 | C#C[C@]1(O)CCC2C3C(=O)C=C4C(Cl)=CCC[C@]4(C)C3CC[C@@]21C (stereo partly specified) | active: 32.6 µM | –
40 | O=C1CN=C(c2ccc(Br)cc2)c2oc3ccccc3c2N1 | active: 11.6 µM | –
41 | C=C(C)[C@@]12OC3(c4ccccc4)O[C@@H]1C1[C@@H]4O[C@]4(CO)[C@@H](O)[C@]4(O)C(=O)C(C)=C[C@H]4[C@@]1(O3)[C@H](C)[C@H]2OC(=O)/C=C/C=C/c1ccccc1 (stereo partly specified) | inconclusive [cytotoxic, full curve] | –
42 | CC1(C)CC2CC(C)(CN2c2ncnc3ccccc23)C1 (stereo unspecified) | inconclusive [cytotoxic, single point] | –
43 | O=C(Cc1ccc(Br)cc1)N1CCN(Cc2ccccc2)CC1 | inconclusive [cytotoxic, single point] | –
44 | COC1C(O)C(C)OC(OC2CCC3(C)C(CCC4C3C(O)CC3(C)C(C5=CC(=O)OC5)CCC43O)C2)C1O (stereo unspecified) | active: 0.82 µM | –

Row | Compound | Potency | activity, negative = toxicity
45 | O=C1NC2C(=CC(O)C(O)C2O)c2cc3c(cc21)OCO3 (stereo unspecified) | active: 1.16 µM | –
46 | CC1[C@H]2Cc3ccc(O)cc3[C@]1(C)CCN2CCc1ccccc1 (stereo partly specified) | active: 14.6 µM | –
47 | COC(=O)C1=C(c2ccc(OC(F)(F)F)cc2)C[C@@H]2CC[C@H]1N2C(=O)N1CCC(C)CC1 | inconclusive [cytotoxic, single point] | –
48 | COc1ccc(NC(=O)c2cn(CCC#N)nc2-c2ccc([N+](=O)[O-])cc2)cc1 | inconclusive [cytotoxic, single point] | –
49 | COc1cc2c(c(OC)c1O)-c1ccc(OC)c(=O)cc1C(NC(=O)C(F)(F)F)CC2 (stereo unspecified) | inconclusive [cytotoxic, full curve] | –
50 | CC(C)NC(=O)Cn1cc(C(=O)c2ccccc2F)c2ccccc21 | inconclusive [cytotoxic, single point] | –
51 | COc1ccc(-n2nnnc2C(c2ccnc3ccccc23)N2CCC3(CC2)C(=O)NCN3c2ccccc2)cc1 (stereo unspecified) | inconclusive [cytotoxic, single point] | –
52 | COc1ccc(C(c2nnnn2Cc2ccccc2)N2CCC3(CC2)C(=O)NCN3c2ccccc2)cc1 (stereo unspecified) | inconclusive [cytotoxic, single point] | –
53 | CC(C)N(C(=O)CSc1nnc(-c2cc3ccccc3cc2O)n1Cc1ccco1)C(C)C | inconclusive [cytotoxic, single point] | –
54 | CCOC(=O)C1(CCc2ccccc2)CCN(Cc2csc(C(C)=O)c2)CC1 | inconclusive [cytotoxic, single point] | –
55 | CN1C(=O)C(=Cc2ccccc2OCc2ccccc2Cl)C(=O)N(C)C1=O | active: 16.4 µM | –
56 | CN(C)c1ccc(/C=C2/C(=N\O)C3CCN2CC3)cc1 | – | inactive: 8.45%
57 | CCCCc1nc2ccccc2c(=O)n1-c1ccc(Cl)cc1[N+](=O)[O-] | – | inconclusive: 31.9%
58 | Cc1nn(CCC#N)c2c1P(=S)(N1CCCC1)OC(c1ccc(F)cc1)=N2 (stereo unspecified) | – | inactive: 2.87%
59 | CC(C)CNC(=O)c1c(N)n(Cc2ccc3c(c2)OCO3)c2nc3ccccc3nc12 | active: 16.4 µM | –
60 | CCCOC(=O)C1C2CCC(O2)C1C(=O)O (stereo unspecified) | inconclusive [cytotoxic, single point] | –
61 | O=c1c2ccccc2nc(/C=C/c2ccc(F)cc2)n1-c1ccccc1O | active: 20.6 µM | –
62 | Nc1c(C(=O)NCc2ccco2)c2nc3ccccc3nc2n1CCN1CCOCC1 | – | inconclusive: -68%
63 | C[C@]12CC[C@H]3[C@@H](CC[C@]4(O)C[C@@H](O)CC[C@]34C=O)[C@@]1(O)CC[C@@H]2C1=CC(=O)OC1 | active: 0.651 µM | –
64 | CCc1ccc(-c2cc(C(F)(F)F)n3nc(C(=O)Nc4c(C)nn(Cc5ccc(F)cc5)c4C)cc3n2)s1 | inconclusive [cytotoxic, single point] | –
65 | Cn1cc(C(=O)N2CCCCC2)c2ccccc21 | – | inactive: -1.72%
66 | O=C(/C=C/c1cccs1)c1cc(Cl)ccc1OC(=O)N1CCOCC1 | inconclusive [cytotoxic, single point] | –
